The list shows a part of the results.
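Further: jurkat cells carrying a lentiviral library of mutant zinc finger degrons fused to EGFP plus mCherry, mCherry+ cells FACS sorted, degron abundance counted by next-generation sequencing.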

The experiment deals with no compound (DMSO). The experiment can be described thus: log2 fold change of degron read counts, EGFP-low vs EGFP+ sorted cells; higher = lower degron-EGFP level without compound (poor expression or instability). The settings on record: compound: DMSO control; 18 h.
Turning to FQCEICGACFTQKGNLLRHIKL, the “log2 fold change of degron read counts” value was -1.98.

Consider FDCPVCGAMFTQKGNLLRHIKL, for which the “log2 fold change of degron read counts” value was -0.527.

In the case of FCCPVCGAFFTQKGNLLRHIKL, the “log2 fold change of degron read counts” value was 0.842.

For the sequence FKCNQCGHKFTQKGNLLRHIKL, the “log2 fold change of degron read counts” value was -0.998.

For FHCSVCGHVFTQKGNLLRHIKL, the “log2 fold change of degron read counts” value is -0.26.

As to FKCNICGADFTQKGNLLRHIKL, the “log2 fold change of degron read counts” value is -0.682.

As to LACPICGFMCTQKGNLLRHIKL, the “log2 fold change of degron read counts” value worked out at 0.962.

With LSCNQCGFTCTQKGNLLRHIKL, the “log2 fold change of degron read counts” value amounted to 0.398.

For FSCPVCGAKFTQKGNLLRHIKL, the “log2 fold change of degron read counts” value is -0.677.

Take FMCPQCGANFTQKGNLLRHIKL: the “log2 fold change of degron read counts” value is -0.956.

Consider FFCPICGARFTQKGNLLRHIKL, for which the “log2 fold change of degron read counts” value was -0.105.

With FDCNQCGAAFTQKGNLLRHIKL, the “log2 fold change of degron read counts” value is -0.41.

On to LWCNQCGFMCTQKGNLLRHIKL, for which the “log2 fold change of degron read counts” value stood at 2.07.

On to FFCDVCGAFFTQKGNLLRHIKL, for which the “log2 fold change of degron read counts” value was found to be 0.382.

Source of the values: the supplement of paper PMC12645437, “Orthogonal IMiD-Degron Pairs Induce Selective Protein Degradation in Cells” (ACS Chemical Biology, 2025).
